Reference: PubChem BioAssay AID651820 (National Center for Advancing Translational Sciences (NCATS), 2012)
Among all 340,000 compounds or so, about 12,000 (3.5%) were called active. The inconclusive results got no clear call from the source; some entries with a clear call stand among them for comparison. Calls come from the whole dose curve; as a rule, active = well fitted inhibition curve with a large enough effect; inconclusive = small, poorly fitted or top-dose-only effect, or another doubt; inactive = no such curve, though single readings can be large or run the other way. No potency is given beside an inconclusive call; the fits are too rough.

Test: qHTS Assay for Inhibitors of Hepatitis C Virus (HCV)
Conditions: Huh7.5.1 HCVcc-Cre (HCVcc is cell-culture hepatitis C virus) infection, luciferase reporter, 44 h; activity change, negative = inhibition: at 41.8 µM (top of the series) unless noted
How it was run: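 1,000 cells/well; 4 h culture; + compound; + HCVcc-Cre (~0.5 moi); 44 h; luciferase substrate, RT 15 min; read 15 sec.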
% is set by controls: 0 for no effect and ±100 for the full control effect; potency is the fitted concentration of half-maximal effect; tags give direction and shape of the fitted curve.

Structure (SMILES)	activity change, negative = inhibition	Potency
O=C(CSc1nc2cccnc2n1Cc1ccccc1)NC1CCCCC1	inactive: -28.9%	
CCOc1ccc(Nc2ccc(S(=O)(=O)N3CCN(C)CC3)cc2[N+](=O)[O-])cc1OCC		inconclusive [inhibitor, partial curve]
CCN(C(=O)CN1C(=O)NC(c2ccccc2)(c2ccc(C)c(C)c2)C1=O)C1CCCCC1 (centres undefined)		inconclusive [inhibitor, single point]
Cc1ccc(NS(=O)(=O)c2ccc(C(=O)NCC(c3ccco3)N3CCCCC3)cc2)cc1 (centres undefined)		inconclusive [inhibitor, partial curve]
COc1ccc(NC(=O)CCOc2ccccc2F)cc1S(=O)(=O)N1CCCCC1		active: 12.6 µM
CCOc1ccc(S(=O)(=O)NCCC(=O)NCC(c2ccc(F)cc2)N2CCOCC2)cc1 (centres undefined)	inactive: 0.783%	
CCCN(C(=O)COC(=O)c1nc2nccc(C)n2n1)C1CCS(=O)(=O)C1 (centres undefined)	inactive: 10.4%	
O=C(CCN1C(=O)S/C(=C\c2ccccc2)C1=O)N1CCCCC1	inactive: -5.28%	
Cc1ccc2c(Cl)c(C)c(N3CCCC3)nc2n1		inconclusive [inhibitor, single point]
N#Cc1ccsc1NC(=O)CSc1nnc(-c2ccccc2)o1	inactive: -11.7%	
Cc1ccc(C)c(Nc2nc3ccc(C)cc3n3cnnc23)c1		inconclusive [inhibitor, single point]
CCOC(=O)/C(=C\c1ccc(OC(F)F)cc1)C1=Nn2c(nnc2-c2ccc(Cl)cc2)SC1		inconclusive [inhibitor, partial curve]
COc1cc(OC)cc(C(=O)Nc2ccc(N3CCOCC3)cc2N2CCOCC2)c1		inconclusive [inhibitor, partial curve]
N#CCc1nc2ccccc2c(=O)[nH]1	inactive: 0.236%	
Cn1c(CN2CCOCC2)nc2cc(NC(=O)c3ccc(F)cc3)ccc21		inconclusive [inhibitor, single point]
CC(C)Oc1ccc(CNS(=O)(=O)c2csc(C(N)=O)c2)cc1		inconclusive [inhibitor, single point]
CCC(O)C1CCN(Cc2cn(Cc3ccccc3)nc2-c2cc3ccccc3o2)CC1 (centres undefined)		inconclusive [inhibitor, single point]
COc1cc(CN(CC(C)C)S(=O)(=O)c2ccccc2Br)cc(OC)c1		inconclusive [inhibitor, single point]
C=C1C(=O)OC2CC3(C)OC3CCC(C)=CC(OC(C)=O)C12 (centres undefined)		inconclusive [inhibitor, single point]
CC(=O)N1CCN(S(=O)(=O)c2cccc(C(=O)N(C)Cc3ccc(C)o3)c2)CC1	inactive: 27.2%	
COc1cc(CNc2ccc3[nH]c(=O)[nH]c3c2)ccc1OCc1ccc(C)cc1		inconclusive [inhibitor, partial curve, poor fit]
CCN(C[C@H]1N[C@@](C)(C(=O)OC)[C@H]2C(=O)N(C)C(=O)[C@@H]12)C(=O)Nc1ccc(C(F)(F)F)cc1		inconclusive [inhibitor, full curve, poor fit]
Cc1ccc(C(=O)NNC(=O)CSc2n[nH]c(-c3cccnc3)n2)cc1	inactive: -5.78%	

Structure (SMILES)	activity change, negative = inhibition	Potency
O=S(=O)(c1ccc(N2CCN(c3ccc(F)cc3)CC2)cc1)N1CCCC1	inactive: 6.96%	
O=C(c1ccccc1)C(Nc1cccc([N+](=O)[O-])c1)c1ccccc1 (centres undefined)		inconclusive [inhibitor, single point]
COc1ccc(O)c(CN2CCCC(C(=O)Nc3cccc(-n4cccn4)c3)C2)c1 (centres undefined)		inconclusive [inhibitor, single point]
CCOC(=O)CC(=O)CSc1nc2c(c(-c3cccs3)c1C#N)CCC2		inconclusive [inhibitor, partial curve]
CCn1c(=O)c2sccc2n2c(CCCC(=O)NCc3cccnc3)nnc12	inactive: 6.59%	
Cc1cc(C)n(CC(O)COc2ccc(Cl)cc2)n1 (centres undefined)		inconclusive [inhibitor, single point]
O=C(Nc1ccccc1N1CCOCC1)c1cccc(NS(=O)(=O)c2ccc(F)c(F)c2)c1		inconclusive [inhibitor, partial curve]
O=c1[nH]cnc2scc(-c3cccs3)c12		inconclusive [inhibitor, single point]
CCc1ccccc1-n1c(SCC(=O)N2CCCC2)nc2[nH]ncc2c1=O	inactive: 3.32%	
COc1cccc(-c2nc(OC(C)C)c3ccccc3n2)c1		inconclusive [inhibitor, full curve]
Cc1cc(-c2ccccc2N)n[nH]1	inactive: 1.58%	
CCOC(=O)C(C)Sc1nc2c(cnn2-c2ccc(C)cc2)c(=O)[nH]1 (centres undefined)		active: 11.2 µM
CS(=O)(=O)c1nc(S(=O)(=O)c2ccc(Cl)cc2)c(N2CCCCC2)s1	inactive: -10.8%	
Cc1ccccc1-c1nc(S(=O)(=O)c2ccc(Cl)cc2)c(NCCN2CCOCC2)o1		inconclusive [inhibitor, single point]
CC(C)CN1Cc2ccccc2Oc2cc(Br)ccc2S1(=O)=O		inconclusive [inhibitor, partial curve, poor fit]
O=c1c2ccccc2nc(/C=C/c2ccco2)n1-c1ccccc1O		inconclusive [inhibitor, partial curve]
CCOC(=O)CNC(=S)N(Cc1ccccc1F)C1CCCCC1	inactive: 11.1%	
Cc1cc(C)c2c(C)nn(C3CCCCC3)c2n1		inconclusive [inhibitor, partial curve]
COC(=O)C(NC(=O)c1ccccc1Cl)(Nc1ncc(S(=O)(=O)c2ccc([N+](=O)[O-])cc2)s1)C(F)(F)F (centres undefined)		inconclusive [inhibitor, full curve]
CCCc1cc(=O)oc2c(CNc3ccc(OCC)cc3)c(O)ccc12		inconclusive [inhibitor, partial curve]
COc1ccc(OC)c2c1nc1n2CCS1		inconclusive [inhibitor, partial curve]
O=C(CN1CCN(S(=O)(=O)c2cccc(F)c2)CC1)Nc1ccnn1C1CCCC1		inconclusive [inhibitor, partial curve]
O=[N+]([O-])c1ccc(Sc2nccn2Cc2ccccc2)cc1	inactive: 0.754%	

Structure (SMILES)	activity change, negative = inhibition	Potency
COc1ccc(C(C(=O)NCc2ccccc2)N(C(=O)c2snc(C(N)=O)c2N)c2ccccc2OC)cc1 (centres undefined)		inconclusive [inhibitor, full curve]
Cc1cc(Cl)ccc1OCC(=O)N1CCN(C)CC1	inactive: 9.43%	
Cc1ccc(C(=O)CCC(=O)N2CCN(c3ccc(F)cc3)CC2)cc1		inconclusive [inhibitor, single point]
CN(C)/C(CN1CCN(C=O)CC1)=C1\N=C(c2ccccc2)OC1=O		inconclusive [inhibitor, partial curve, poor fit]
CCOC(=O)c1ccc(NC(=O)C(=O)NCC2(c3ccc(OC)cc3)CCOCC2)cc1		inconclusive [inhibitor, single point]
Cc1ccsc1C(=O)C1CCCN(Cc2sc(N(C)C)nc2Cl)C1 (centres undefined)		inconclusive [inhibitor, single point]
COc1ccc(C(=O)/C=C/Nc2ccc(S(=O)(=O)Nc3cccc(C(C)=O)c3)cc2)cc1		active: 11.2 µM
COC(=O)c1c(-c2ccc(N(C)C)cc2)sc2ccc(OC)cc12		inconclusive [inhibitor, partial curve]
CCC(=O)N1CCc2cc(Br)cc(S(=O)(=O)NCCCN(CC)Cc3ccccc3)c21		inconclusive [inhibitor, partial curve]
CCOc1ccc2c(O)csc2c1	inactive: -12%	
Cc1c(C)n(Cc2ccc(F)cc2)c2ccc(C(=O)NCCCN3CCOCC3)cc12		inconclusive [inhibitor, single point]
CCN(CC(=O)Nc1ccc(NC(C)=O)cc1)C(=O)Cc1ccc(Cl)c(Cl)c1		inconclusive [inhibitor, partial curve]
COc1ccccc1NS(=O)(=O)c1cc(NC(=O)C2CCC2)ccc1N1CCCCC1	inactive: -14.7%	
CC(C)N(Cc1c(O)ccc2c(=O)c(-c3ccc(Cl)cc3)coc12)C(C)C		inconclusive [inhibitor, partial curve]
CN1CCN(c2ccc(S(=O)(=O)N3CCCCC3)cc2NC(=O)COc2ccc([N+](=O)[O-])cc2)CC1		inconclusive [inhibitor, partial curve]
CN(C)C1(CNC(=O)c2cccc(S(=O)(=O)Nc3ccc(Br)cc3)c2)CCCCC1		inconclusive [inhibitor, partial curve]
CN(C(=O)COC(=O)c1ccc(S(=O)(=O)N2CCOCC2)cc1)c1ccccc1	inactive: 21.2%	
O=C(Cc1cccs1)N/N=C\c1ccc(O)cc1	inactive: -12.6%	
COc1ccc(-c2nc(CCNC(=O)c3ccco3)cs2)cc1OC		inconclusive [inhibitor, partial curve]
O=C(C[n+]1ccc(/C=N/O)cc1)NCc1ccccc1	inactive: 12.9%	
CC(C)CCNC(=O)NC(=O)CSc1ccc(S(=O)(=O)N2CCOCC2)cn1	inactive: 10.7%	
COCCn1ccc2c(OCC(=O)Nc3cc(OC)ccc3OC)cccc2c1=O		inconclusive [inhibitor, partial curve]
Cc1cc(C)c(S(=O)(=O)N2CCC(C(=O)NCc3ccncc3)CC2)c(C)c1		inconclusive [inhibitor, single point]
